# According to patent publication US20060211606A1, “Peptides” (priority 2005, published 2006):
# Some results were stated once for a whole list of compounds, not compound by compound. For some of these results: At least one peptide structure holds a part that was inferred or is arguable (an end, a ring closure or a residue). Where a SMILES comes first, the peptide text is derived from it. Where no end group is shown, it is not given here. [ ]: non-standard residue; d: D form.
# Experiments:
# [1] = Stability to proteolytic cleavage in fresh human plasma, Western blotting; settings: intact peptide bound to specific antibody
# [2] = system: mononucleated myoblasts (satellite cells); test: Myoblast replication, cell number by Alamar Blue method (0 to 3 scale); format: cell-based
# Experimental: FIG. 2: Effect of Alanine substitution and C-terminal and N-terminal truncation on stability and biological activity—further sequence alignment, comparing modified sequences of Peptides 1-6 (SEQ ID NOS: 15-20) and Short peptides 1-4 (SEQ NOS: 21-24), and detailing impact of changes on stability as measured by incubation in human plasma and biological activity as measured by testing on muscle cell line (see Examples for details of test procedures).
# In this regard, one method of assessing biological activity is the Alamar Blue method as discussed in Example 5.2.2. This involves contacting a polypeptide with mononucleated myoblast cells and assessing the extent to which it causes them to proliferate. This can be scored in any suitable way, e.g. on a scale of 0 to 3 as discussed in the Examples. Activity may also be measured via cyclins, such as cyclin ID, which are early markers of cell division. Activity may also be measured via the use of bromodeoxy uridine (BrdU).
# Biological activity was determined using an in vitro system by measuring the ability of the C terminal peptides to induce mononucleated myoblasts (satellite cells) to replicate. Cell number was determined using the Alamar Blue method.
Molecule,stability score (scale of 0 to 3) [1],biological activity score (scale of 0 to 3) [2]
"C[C@@H](O)[C@H](NC(=O)[C@H](CO)NC(=O)CNC(=O)[C@H](CCCCN)NC(=O)[C@@H](CCCNC(=N)N)NC(=O)[C@@H](CCCNC(=N)N)NC(=O)[C@H](CCC(N)=O)NC(=O)[C@H](CO)NC(=O)[C@H](CCCCN)NC(=O)[C@@H](NC(=O)[C@H](CC(N)=O)NC(=O)[C@H](CCCCN)NC(=O)[C@H](CC(N)=O)NC(=O)[C@@H](NC(=O)[C@H](CO)NC(=O)[C@@H]1CCCN1C(=O)[C@@H]1CCCN1C(=O)[C@H](CCC(N)=O)NC(=O)[C@@H](N)Cc1ccc(O)cc1)[C@@H](C)O)[C@@H](C)O)C(=O)N[C@@H](Cc1ccccc1)C(=O)N[C@@H](CCC(=O)O)C(=O)N[C@@H](CCC(=O)O)C(=O)N[C@@H](Cc1c[nH]cn1)C(=O)N[C@@H](CCCCN)C(N)=O [same peptide, but lacking PEGylation] (H-YQPPSTNKNTKSQ[dR][dR]KGSTFEEHK-NH2)",3 (no marked loss of antibody binding by 24 hours.),
Short peptide 1: SEQ ID NO: 15 with Arg14→Ala and the two C-terminal amino acids removed (YQPPSTNKNTKSQARKGSTFEE),,1 (significant increase in cell number at 4 h.)
YQPPATNKNTKSQRRKGSTFEEHK [Peptide 2],3 (no marked loss of antibody binding by 24 hours.),1 (significant increase in cell number at 4 h.)
YQPPSTNKNTKAQRRKGSTFEEHK [Peptide 3],2 (marked loss of detectable binding by 2 hours.),
YQPPSTNKNTKSQAAKGSTFEEHK [Peptide 6],1 (marked loss of detectable antibody binding by ½ hours.),
YQPPSTNKNTKSQARKGSTFEEHK [Peptide 5],3 (no marked loss of antibody binding by 24 hours.),2 (significant increase in cell number at 2 h.)
YQPPSTNKNTKSQRRKGATFEEHK [Peptide 4],2 (marked loss of detectable binding by 2 hours.),2 (significant increase in cell number at 2 h.)
